# Experimental data as given in publication PMC10668032.
# The other results are listed elsewhere or left out. At the low end of the ranking the order means little.
# Molecular target: SIX1 homeodomain (reference allele) (UniProt Q15475)
# Assay: universal protein binding microarray
# Settings: Universal all-10-mer PBM (8x60K, AMADID 030236), 300 nM GST-tagged protein, Alexa Fluor 488 anti-GST; buffer, salt, pH and temperature not stated; high values mean tight binding; most listed sequences are background and not binding sites; double strand, one strand shown
row,Sequence,binding signal
1,CGCCATGA,-0.0245 E-score
2,AACGTACG,-0.332 E-score
3,CAAACCAA,-0.129 E-score
4,CCTTATTC,-0.15 E-score
5,CTTAGCGA,-0.0823 E-score
6,AACGATAA,-0.103 E-score
7,CACCTGGA,0.0132 E-score
8,CCGGGTCG,0.181 E-score
9,GGTTTTAA,0.0244 E-score
10,AGCATGAG,0.0375 E-score
11,ATCGTGCA,0.16 E-score
12,ATAGACAT,0.039 E-score
13,TCAAACCA,0.0903 E-score
14,GGCGCATA,-0.022 E-score
15,AAGGCACG,-0.134 E-score
16,ACTTTACA,-0.0661 E-score
17,AGGTCGTG,0.0323 E-score
18,CCCTCATC,0.176 E-score
19,CTAGATAC,0.349 E-score
20,AATTGAGT,-0.0887 E-score
21,AGAGTCTG,-0.18 E-score
22,TGGGTACA,0.12 E-score
23,ATAGGATG,0.211 E-score
24,AGACTTGC,-0.0704 E-score
25,CACCGCAC,0.148 E-score

row,Sequence,binding signal
1,GACCCACC,-0.233 E-score
2,ACGGTGAG,-0.00796 E-score
3,TAATCAGA,0.148 E-score
4,CGTTACAG,-0.15 E-score
5,CTTTAAGA,0.0747 E-score
6,CGCCAGGC,-0.0956 E-score
7,ACTCACGG,-0.0937 E-score
8,GAGGCCCA,-0.401 E-score
9,CCGGGTCC,-0.0319 E-score
10,AATAATCG,0.0679 E-score
11,CTTTTACC,-0.207 E-score
12,GTTCAGGA,0.141 E-score
13,CGCATAGA,0.0481 E-score
14,ACTAAGTA,-0.141 E-score
15,TCGCAGAA,-0.208 E-score
16,AAGTGTTA,-0.127 E-score
17,CTACCGGC,-0.154 E-score
18,CTGGTCCC,-0.121 E-score
19,CTAACGAC,-0.313 E-score
20,AGGCTGAA,-0.296 E-score
21,GGCCTTGA,-0.145 E-score
22,ACCCAGCA,-0.0349 E-score
23,AGAAACAG,-0.265 E-score
24,TCCGCCGA,0.252 E-score
25,ACAACCAC,-0.212 E-score

row,Sequence,binding signal
1,ATCGCCCC,0.253 E-score
2,GCACGTAC,-0.0659 E-score
3,CGATCGGA,0.24 E-score
4,ATTCAGAA,-0.157 E-score
5,GTCCGTTA,-0.151 E-score
6,TACCGACA,0.134 E-score
7,AGTCCTAC,0.047 E-score
8,ACTAATTA,-0.0562 E-score
9,AGTAGTGC,-0.0785 E-score
10,GCACAACA,-0.124 E-score
11,ATTATCAG,0.168 E-score
12,GAGAACGC,-0.119 E-score
13,CACCATCC,0.195 E-score
14,CGAATACC,0.233 E-score
15,ATAAAGCC,-0.108 E-score
16,TACCTATA,0.289 E-score
17,GATAAGAC,0.0372 E-score
18,GTGCTTAA,-0.233 E-score
19,ATAGCAAA,-0.0457 E-score
20,GCATCAGC,-0.0428 E-score
21,GCCAATTA,-0.158 E-score
22,CACATACC,0.135 E-score
23,AAATAAAG,-0.0783 E-score
24,CAACTTGA,-0.0589 E-score
25,CGTCTGCC,0.051 E-score

row,Sequence,binding signal
1,GAGTTCCC,-0.249 E-score
2,TAAAACTA,0.0743 E-score
3,GGCTTCAC,-0.0619 E-score
4,CCTGGCTC,0.0769 E-score
5,GGTATTTA,0.191 E-score
6,GCTAATAC,0.244 E-score
7,ACGGTATG,0.157 E-score
8,AAGCTCGT,-0.199 E-score
9,CATCCCCG,0.145 E-score
10,CTGGCACC,0.0202 E-score
11,GGCAGGAA,-0.232 E-score
12,ATATATCG,0.372 E-score
13,CGATTCTC,0.0404 E-score
14,TATGACGA,-0.0657 E-score
15,AATGTATC,0.363 E-score
16,CTAATGTC,-0.0984 E-score
17,ATCTTCGC,0.14 E-score
18,AGACATGA,0.173 E-score
19,GCATAGCC,-0.106 E-score
20,AGTCGGTA,0.00167 E-score
21,AGGCGGGG,0.157 E-score
22,AAGTTCGA,-0.184 E-score
23,CTCGCTAA,0.111 E-score
24,AAGATTGT,-0.142 E-score
25,ATCTAATC,0.255 E-score

row,Sequence,binding signal
1,AGAGCCGC,-0.236 E-score
2,CAAGTACC,-0.00547 E-score
3,AGGGCAGC,-0.0735 E-score
4,CAGCAGCC,-0.206 E-score
5,CTCCTAGA,0.112 E-score
6,AGAAACAC,-0.00396 E-score
7,CATCGACC,-0.047 E-score
8,GGGTATAA,0.375 E-score
9,CCGGTGCC,-0.113 E-score
10,AAAAAACC,-0.123 E-score
11,ATAGCAAC,-0.00144 E-score
12,CCCTTGCG,-0.182 E-score
13,AGCGCGGA,0.0543 E-score
14,ATTTCAGA,-0.106 E-score
15,CTCACGCC,0.0894 E-score
16,AATATAAG,0.15 E-score
17,CCACCTGA,0.0787 E-score
18,GATTTCAA,-0.157 E-score
19,AACAACTC,-0.193 E-score
20,CCCGAGGC,-0.00664 E-score
21,CCATTCGC,-0.18 E-score
22,AACACGAA,0.0695 E-score
23,AGTTTAAT,-0.0927 E-score
24,CTAAGCAC,-0.00322 E-score
25,CACACGGC,-0.199 E-score

row,Sequence,binding signal
1,AAATGGTA,-0.0836 E-score
2,AAAGATTG,-0.231 E-score
3,GAGACAAC,0.0738 E-score
4,TAACGGCA,-0.242 E-score
5,CTGCTTGA,0.0764 E-score
6,ATTCACAC,0.0491 E-score
7,ACCTCAAT,-0.123 E-score
8,AGAACTAT,0.0937 E-score
9,AATTACGC,-0.176 E-score
10,ACGCTTGA,-0.0476 E-score
11,AACTTATA,0.0614 E-score
12,CCAATGGG,-0.0962 E-score
13,ATGCTTGC,-0.0173 E-score
14,CTCTAACC,-0.201 E-score
15,CATCTATC,0.211 E-score
16,CTGGCCAG,-0.219 E-score
17,ATCGATGC,0.0823 E-score
18,TCAGTTAA,-0.0668 E-score
19,CCTATATC,0.352 E-score
20,ACAGTCGT,-0.0838 E-score
21,CTGTTCAC,-0.146 E-score
22,CGGACGCC,-0.241 E-score
23,ATTTTCAG,-0.155 E-score
24,GATTTCGA,-0.278 E-score
25,CACGCCAC,-0.121 E-score

row,Sequence,binding signal
1,TCATAAAA,-0.0712 E-score
2,GAGCGAAA,-0.139 E-score
3,CCTCGTAC,0.089 E-score
4,ACGACAAA,-0.184 E-score
5,GATATCTA,0.392 E-score
6,GATGACAA,-0.0562 E-score
7,CTCACTCA,-0.0219 E-score
8,TACGCCAA,-0.105 E-score
9,ATAACTAG,0.097 E-score
10,CCGGCCAA,-0.11 E-score
11,GTCCGCTA,-0.0284 E-score
12,TCACAAAA,-0.13 E-score
13,GCCGTTAC,-0.167 E-score
14,GCCGTTCA,-0.171 E-score
15,CGCTCTGC,-0.131 E-score
16,ATACGAAT,0.182 E-score
17,CTGGTCAC,-0.191 E-score
18,ACAGGGTA,0.267 E-score
19,CCTCAAAG,-0.0687 E-score
20,GAGGTCGC,-0.156 E-score
21,AGCGCGTG,-0.263 E-score
22,TGAGCCCA,0.0713 E-score
